Measured values as given in PMC6919601, “Identification of Plasmodium dipeptidyl aminopeptidase allosteric inhibitors by high throughput screening” (PLoS ONE, 2019).
The campaign covered roughly 110,000 compounds. About 230 (0.21%) showed an effect of 50% or more. The list shows a part of the results.

Each compound was assayed against DPAP1 (Plasmodium falciparum, UniProt Q8IIJ9) (assay: primary screen, percent inhibition; read by cleavage of a fluorogenic dipeptide substrate; higher = more effect of the substance).
DPAP1, sequence (Q8IIJ9 whole entry, looked up): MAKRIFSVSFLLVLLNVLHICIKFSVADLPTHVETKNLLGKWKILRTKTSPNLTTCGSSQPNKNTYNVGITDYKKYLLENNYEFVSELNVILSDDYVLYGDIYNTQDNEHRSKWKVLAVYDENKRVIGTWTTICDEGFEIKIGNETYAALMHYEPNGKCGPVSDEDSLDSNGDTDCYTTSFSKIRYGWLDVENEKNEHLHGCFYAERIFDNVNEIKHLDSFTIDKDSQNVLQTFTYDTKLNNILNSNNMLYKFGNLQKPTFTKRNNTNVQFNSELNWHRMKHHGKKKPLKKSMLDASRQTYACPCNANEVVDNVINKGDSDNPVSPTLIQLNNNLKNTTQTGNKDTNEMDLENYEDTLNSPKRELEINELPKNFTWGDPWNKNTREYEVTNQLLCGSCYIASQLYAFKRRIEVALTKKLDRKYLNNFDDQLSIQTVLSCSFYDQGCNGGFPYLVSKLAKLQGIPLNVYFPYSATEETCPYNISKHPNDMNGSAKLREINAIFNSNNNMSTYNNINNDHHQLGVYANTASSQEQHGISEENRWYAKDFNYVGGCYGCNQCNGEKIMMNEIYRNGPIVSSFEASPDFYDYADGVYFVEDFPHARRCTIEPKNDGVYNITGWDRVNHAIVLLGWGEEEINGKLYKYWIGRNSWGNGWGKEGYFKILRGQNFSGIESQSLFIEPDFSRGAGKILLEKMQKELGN
Parameters: species or system P. falciparum D10 trophozoite lysates; single well
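Further: 30 min substrate incubation versus DMSO and 10 µM JCP410 controls.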

SMILES	% Inhibition @ 10 uM [%]
O=C1NC(=O)/C(=C\c2c(F)cccc2Cl)N1	-5.63
CCOc1ccc(C2c3c(-c4ccccc4O)n[nH]c3C(=O)N2CCOC)cc1 (stereo not shown)	8.13
O=C(c1ccc(F)cc1)N1N=C(c2cccs2)CC1c1ccccc1 (stereo not shown)	0.161
O=C(CSc1nc(O)cc(-c2ccccc2)n1)NCc1cccs1	-1.6
Cc1ccc(SCCC(=O)N2CCC(C)CC2)cc1	3.49
CC1=CC(C)(C)NC(=S)N1c1ccc(Br)c(C)c1	-0.969
CCOc1ccc2cc(C3CC(c4ccc(C)cc4)=NN3C(C)=O)c(Cl)nc2c1 (stereo not shown)	-1.47
COc1ccccc1NC(=O)c1ccc(NS(=O)(=O)c2cccc(C(F)(F)F)c2)cc1	-2.76
CCCN1CCN(C(=O)C2CCN(c3nc4cc(Br)c(OCC)cc4s3)CC2)CC1	3.3
COc1ccc(C2(N3CCOCC3)Oc3ccccc3C(C#Cc3ccccc3)=C2C)cc1 (stereo not shown)	-1.15
CN1CCN(c2ccc([N+](=O)[O-])c(N)c2)CC1	-6.99
Cc1ccc(-c2nc(C(=O)N(C)CCC#N)c3n2CCCCC3)cc1	-3.47
CCOC(=O)c1c(C)nc2cc(C(=O)O)nn2c1C	-1.66
Clc1ccc(N2CCN(C3CCCCCC3)CC2)cc1	-3.6
O=C(NCc1ccco1)c1ccc(Br)cc1	-0.833
CCOC(=O)N1CCN(c2c(NCc3ccccn3)c(=O)c2=O)CC1	5.09
CCn1ncc(Cl)c1C(=O)Nc1cccc(C)c1C	0.746
COc1ccc(C2SC(C)C(=O)N2c2ccc(Cl)cc2)cc1 (stereo not shown)	13.3
CCCCOc1cccc(C2(C(=O)O)CCCC2)c1	-1.97
CCN1CN=C(Nc2nc(C)c3cc(C)ccc3n2)NC1	-1.33
N#CC1=C(N)Oc2[nH]nc(-c3ccccc3)c2C1c1ccc(Cl)cc1Cl (stereo not shown)	6.42
Cc1ccc(N2C(=O)CC(N3CCN(c4ccccc4F)CC3)C2=O)cc1 (stereo not shown)	13.7
COc1ccc(C2OC(=O)c3ccccc3S2)cc1 (stereo not shown)	2.8
Cc1ccc(-n2nnc(C(N)=O)c2C)cc1	-13.4
CCN1CCN(Cc2ccccc2[N+](=O)[O-])CC1	-1.29
Cc1cccc(CCNc2ncnc3onc(C)c23)c1	-2.71

SMILES	% Inhibition @ 10 uM [%]
Cc1ccc(CSCC(=O)NCc2cccs2)cc1	2.18
O=C(O)c1cc(Br)cc2c3c([nH]c12)CCCC3	4.83
Cc1cccc2c1-c1sc(C(=O)NCCc3ccsc3)cc1CO2	-3.08
CCN1CCC(Nc2ccccc2SC)CC1	-1.82
Cc1cc(NC(=O)CSc2ccccn2)no1	7.1
COc1cccc(C(=O)Nc2cccc(C(C)=O)c2)c1	2.22
C[C@]12Cc3nc4ccccc4c(N)c3[C@@]1(C)c1c(nc3ccccc3c1N)C2	-0.185
COc1cc(C(=O)Nc2cccc3cccnc23)cc(OC)c1OC	-2.46
CCC1CCCCN1C(=O)c1cnn2c(C(F)F)cc(-c3ccccc3)nc12 (stereo not shown)	5.65
CNC(=O)c1c(NC(=O)c2cccs2)sc2c1CCC(C(C)(C)C)C2 (stereo not shown)	-2.8
CC/N=c1\c(NS(=O)(=O)c2c(C)nc3sccn3c2=O)c(O)oc2ccccc12	10.8
COc1ccc(CC2(NC(=O)c3ccc(Cl)cc3)N=C3C(C)=CC=CN3C2=O)cc1 (stereo not shown)	-6.85
Cc1ccc(C)c(OCC(=O)Nc2ccc(S(=O)(=O)N3CCCC3)cc2)c1	-0.891
O=S(=O)(c1cccc2nsnc12)N(CCOc1ccccc1)C1CCCCC1	-1.42
CCOc1cccc(NC(=O)c2ccc(Cl)cc2)c1	3.49
COc1cc(C2C(C(=O)c3ccccc3)=C(O)C(=O)N2CCN)ccc1O (stereo not shown)	8.01
O=C(CCc1nc2cccnc2n1-c1ccccc1)N1CC=C(c2ccccc2)CC1	3.2
O=C(NCc1ccc(F)cc1)[C@H](Cc1ccccc1)N1Cc2ccccc2C1=O	-4.1
CO/C(O)=C1\C(C)=NC2=C(C(=O)CCC2)C1c1cccc(Cl)c1Cl (stereo not shown)	11.6
Cc1ccc2nc(NS(=O)(=O)c3ccc(Cl)cc3)c(Nc3c(C)n[nH]c3C)nc2c1	-5.67
CN(c1ccccc1C(N)=O)S(=O)(=O)c1ccccc1	1.86
CC(NC(=O)C(O)(c1ccccc1)c1ccccc1)C(=O)O (stereo not shown)	0.248
COc1ccccc1CNC1CCCCCC1	-1.21
Cc1cc(C)c(S(=O)(=O)N2CCN(C/C=C/c3ccccc3)CC2)c(C)c1	-5.32
Cc1ccc2oc(-c3cccc(NC(=O)c4ccccc4)c3)nc2c1	-2.03
COc1cccc(C2Oc3ccc(Cl)cc3C3CC(c4ccco4)=NN32)c1 (stereo not shown)	19.2

SMILES	% Inhibition @ 10 uM [%]
COC(=O)c1ccc(-c2ccc(/C=C3/C(=N)N4N=C(C(C)C)SC4=NC3=O)o2)cc1	-8.7
Cc1cccc2c1cnn2C(=O)CCC(=O)N1CCN(C2CCCCC2)CC1	-1.92
CC(NC(=O)CCNS(=O)(=O)c1ccc(Br)cc1)c1ccccc1 (stereo not shown)	-2.14
O=C1CCCN1CCC12CC3CC(CC(C3)C1)C2	2.12
O=C(c1cc(C2CC2)[nH]n1)n1ccnc1	-4.66
Cc1cc(C(=O)O)c2c(C)nn(-c3ccccc3Cl)c2n1	-3.06
Cc1cc(C)c2c(CC(=O)Nc3sc4c(c3C(=O)NCc3cccnc3)CCCC4)coc2c1	1
CCOc1cccc(OCC)c2c(C)[n+](Cc3ccccc3)c(C)c1-2	-2.65
CC(C)CCOc1ccc(C(=O)C(CN2CCOCC2)c2ccccc2)cc1 (stereo not shown)	-2.37
CC1=NN(C(=O)c2cccc(Cl)c2)C(O)(c2cccnc2)C1 (stereo not shown)	-1.28
COc1cccc(N2C(=O)CC(N3CCN(C/C=C/c4ccccc4)CC3)C2=O)c1 (stereo not shown)	-3.84
CCN(CC)c1ccc(NC(=O)c2ccccc2OCC(=O)N2CCc3ccccc32)cc1	0.145
Cc1ccc2ncc(S(=O)(=O)c3ccccc3)c(N3CCOCC3)c2c1	-6.09
Cc1ccc(CS(=O)Cc2ccc(C(=O)NCCCN3CCCC3)o2)cc1 (stereo not shown)	-0.47
Cc1nc2cc(CC(=O)O)ccc2s1	0.0345
COc1ccc(C2N(C)c3ccccc3N2C)cc1OC	1.96
COc1cc(CN2CCN(c3ccc(F)cc3)CC2)cc(OC)c1O	0.708
O=C(NC(C(=O)c1ccccc1)N1CCOCC1)c1ccccc1 (stereo not shown)	-2.62
CC(C)CC(C(=O)NCC#N)c1cccc(-c2ccc3[nH]ccc3c2)c1 (stereo not shown)	8.71
CSc1ncc(Cl)c(C(=O)N(Cc2cccs2)C2CCS(=O)(=O)C2)n1 (stereo not shown)	6.76
Cc1ccc(OC(C)C(=O)Nc2ccccc2C)cc1 (stereo not shown)	2.03
O=C1OC(c2ccccc2)=N/C1=C\c1cccc(Cl)c1Cl	4.35
COC(=O)c1ccc(O)c(N2C(=O)c3ccc(C(=O)O)cc3C2=O)c1	12
CCNC(=O)N1c2ccc(CC)cc2C(C)=CC1(C)C	-2.94
Cc1ccc2nc(NC3=NCN(Cc4ccccc4)CN3)nc(C)c2c1	-4.62
COc1ccc(OCCN2CCCC2)cc1	3.82

SMILES	% Inhibition @ 10 uM [%]
CC1CCCC(N2CCN(c3ccccc3F)CC2)C1 (stereo not shown)	0.472
C=CCOc1ccc(C2C3=C(CCCC3=O)N(CC(=O)O)C3=C2C(=O)CCC3)cc1OCC	-1.36
CCOc1ccc(Br)cc1/C=C(\C#N)c1nc2cc(C)ccc2[nH]1	-0.693
CC1CC2c3cccc(C(=O)O)c3C(=O)N2c2ccccc21 (stereo not shown)	-0.519
COc1ccc(OC)c(CN2CCC3(C=Cc4ccccc43)CC2)c1	-1.64
CC1=CC2=NC(=O)/C(=C\c3ccc(O)cc3)C(=N)N2O1	-1.43
CCn1cc(CNC(=O)COc2ccc(Cl)cc2Cl)cn1	-1.96
Cc1cccc(OC(C)C(=O)N2CCCc3ccccc32)c1 (stereo not shown)	-0.598
Cc1ccc(Cn2ncc3c(N4CCOCC4)ncnc32)cc1	3.21
CN1CCC(N(C)Cc2ccc(Br)o2)CC1	-4.5
CCN(CC)C(=O)Nc1cccc(Cl)c1	-0.192
c1ccc(CN2CCC(NCC(c3ccccc3)c3ccccc3)CC2)cc1	-0.0953
COc1ccc(C(=O)C2=C(O)C(=O)N(CCCN(C)C)C2c2ccc(C(C)C)cc2)cc1 (stereo not shown)	5.37
COC(=O)N1CCN(c2ccccc2OC)CC1	-6.36
CCCN(CCC)C(=O)c1ccc2c(c1)OCO2	0.52
O=C(COc1ccc(Cl)cc1Cl)N1CCC(CN2C(=O)c3cccc4cccc(c34)C2=O)CC1	7.75
CCN(Cc1ccccc1)c1sc(S(C)(=O)=O)nc1S(=O)(=O)c1ccc(C)cc1	-0.735
Cc1nnc(NC(=O)CSc2nc3c(c(=O)n2C)SCC3)s1	1.39
Cc1c(CN2CCN(c3ccccc3)CC2)c(=O)n(-c2ccccc2)n1C	0.217
CCOC(=O)c1c[nH]nc1/N=C(\C)c1c(C)nn(-c2nc3ccccc3s2)c1O	-3.04
COc1ccc(S(=O)(=O)Nc2ccc(OC)c(OC)c2)cc1	-10.6
COc1cc2nn3c(C)cc(O)nc3c2cc1OC	-3.53
CNC(=O)C1=C(C)N=C(S)NC1c1ccc(OC)c(OC)c1 (stereo not shown)	3.72
Cc1ccc2cc3cc(C(=O)NC4CCN(Cc5ccccc5)CC4)oc3nc2c1	-5.22
COc1ccc(OCC(O)Cn2c(S)nc3c2c(=O)[nH]c(=O)n3C)cc1 (stereo not shown)	6.78
